Source: a collection of fitness landscapes (doi:10.1016/j.celrep.2020.107928)
The full ranking holds about 81,000 sequences; the median of “one-hybrid fitness for binding NBS DNA” is about -0.1, and the highest 2% start at about 0.36. The list shows a part of the results.

B1: Caulobacter ParB omega fusion; a variant is named by its letters at X, in order, B8GW30 (parent)
chain: MESVVVGEPGMSEGRRGLGRGLSALLGEVDAAPAQAPGEQLGGSREAPIEILQRNPDQPRRTFREEDLEDLSNSIREKGVLQPILVRPSPDTAGEYQIVAGERAWRAAQRAGLKTVPIMVRELDDLAVLEIGIIENVQRADLNVLEEALSYKVLMEKFERTQENIAQTIGKSXSHVANXMRLLXLPDEVQSYLVSGELTAXHARAIAAAADPVALAKQIIEGGLSVRETEALARKAPNLSAGKSKGGRPPRVKDTDTQALESDLSSVLGLDVSIDHRGSTGTLTITYATLEQLDDLCNRLTRGI

Variants of: B1
Test: one-hybrid fitness for binding NBS DNA (the Noc-binding site; scaled: cognate 1, non-cognate 0); higher = stronger binding
Conditions: with NBS DNA site
Summary of the method: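 On M9-minus-histidine containing 0.1 mM IPTG and 5 mM 3-AT, E. coli USO cells with a HIS3 reporter, site 19 bp from the promoter, grew 48 hours at 37°C to select Caulobacter ParB libraries randomised at four specificity codons. Plasmids from before and after were Illumina-sequenced, with three replicate libraries pooled and variants under 10 reads left out. Fitness is the log change in variant-to-wild-type read ratio, rescaled against cognate and non-cognate.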

Row | Variant | one-hybrid fitness for binding NBS DNA
1 | MHMI | ≤ 0.2
2 | RVDQ | ≤ 0.2
3 | LNVF | ≤ 0.2
4 | IDNG | ≤ 0.2
5 | CSGR | ≤ 0.2
6 | LHKY | ≤ 0.2
7 | KRKM | 0.253
8 | CCCG | ≤ 0.2
9 | QNDH | ≤ 0.2
10 | HSNY | ≤ 0.2
11 | VCTG | ≤ 0.2
12 | RMFR | 0.348
13 | IHWC | ≤ 0.2
14 | WHES | ≤ 0.2
15 | YEPF | ≤ 0.2
16 | EVTD | ≤ 0.2
17 | DRTK | ≤ 0.2
18 | IFPT | ≤ 0.2
19 | HTDS | ≤ 0.2
20 | EGIS | ≤ 0.2
21 | LFSE | ≤ 0.2
22 | AGTM | ≤ 0.2
23 | RMQA | ≤ 0.2
24 | EHRC | ≤ 0.2
25 | LNVM | ≤ 0.2

Row | Variant | one-hybrid fitness for binding NBS DNA
26 | AYCG | ≤ 0.2
27 | AGTH | ≤ 0.2
28 | AAQG | ≤ 0.2
29 | QHEW | ≤ 0.2
30 | YRMI | ≤ 0.2
31 | FLNC | ≤ 0.2
32 | DRNK | ≤ 0.2
33 | EFMS | ≤ 0.2
34 | TRSE | ≤ 0.2
35 | AYDD | ≤ 0.2
36 | SVYG | ≤ 0.2
37 | HKDG | ≤ 0.2
38 | NLQR | ≤ 0.2
39 | HRKM | ≤ 0.2
40 | MWIR | ≤ 0.2
41 | RELA | ≤ 0.2
42 | PPGK | ≤ 0.2
43 | MISF | ≤ 0.2
44 | SCPG | ≤ 0.2
45 | TTNP | ≤ 0.2
46 | NMPC | ≤ 0.2
47 | SLPR | ≤ 0.2
48 | HRSV | ≤ 0.2
49 | HYEC | ≤ 0.2
50 | TKEQ | ≤ 0.2

Row | Variant | one-hybrid fitness for binding NBS DNA
51 | LMQP | ≤ 0.2
52 | HFNT | ≤ 0.2
53 | SFCH | ≤ 0.2
54 | YCRG | ≤ 0.2
55 | SYMA | ≤ 0.2
56 | KINK | ≤ 0.2
57 | ESER | ≤ 0.2
58 | FGMC | ≤ 0.2
59 | GRQA | ≤ 0.2
60 | HQVG | ≤ 0.2
61 | TQKR | 0.305
62 | SMPY | ≤ 0.2
63 | SRPA | ≤ 0.2
64 | ISKM | ≤ 0.2
65 | VYNW | ≤ 0.2
66 | EQRS | ≤ 0.2
67 | EHKT | ≤ 0.2
68 | SCVM | ≤ 0.2
69 | KESL | ≤ 0.2
70 | CSSV | ≤ 0.2
71 | ATSA | ≤ 0.2
72 | VGRL | ≤ 0.2
73 | KACR | ≤ 0.2
74 | DGSE | ≤ 0.2
75 | DGPT | ≤ 0.2

Row | Variant | one-hybrid fitness for binding NBS DNA
76 | ERET | ≤ 0.2
77 | YTRY | ≤ 0.2
78 | QSKW | 0.279
79 | TYLM | ≤ 0.2
80 | DRQG | ≤ 0.2
81 | FLEF | ≤ 0.2
82 | WSDS | ≤ 0.2
83 | DSTG | ≤ 0.2
84 | LNDG | ≤ 0.2
85 | KSRC | ≤ 0.2
86 | DTHL | ≤ 0.2
87 | RRYA | 0.684
88 | RPPH | ≤ 0.2
89 | ARPS | ≤ 0.2
90 | LAKN | ≤ 0.2
91 | CKPG | ≤ 0.2
92 | QHLG | ≤ 0.2
93 | YTWT | ≤ 0.2
94 | DHTS | ≤ 0.2
95 | TAFV | ≤ 0.2
96 | RWWA | ≤ 0.2
97 | ITVT | ≤ 0.2
98 | LSKW | ≤ 0.2
99 | QMLG | ≤ 0.2
100 | NASK | ≤ 0.2

Row | Variant | one-hybrid fitness for binding NBS DNA
101 | PEDR | ≤ 0.2
102 | NNSA | ≤ 0.2
103 | YRAK | ≤ 0.2
104 | PQVK | ≤ 0.2
105 | FMHR | ≤ 0.2
106 | QRAD | 0.25
107 | RQAM | ≤ 0.2
108 | RWPN | ≤ 0.2
109 | QVYA | ≤ 0.2
110 | QIVG | ≤ 0.2
111 | GVAF | ≤ 0.2
112 | WLDS | ≤ 0.2
113 | MVMG | ≤ 0.2
114 | PIVY | ≤ 0.2
115 | CPAG | ≤ 0.2
116 | PFET | ≤ 0.2
117 | PLDM | ≤ 0.2
118 | LDYD | ≤ 0.2
119 | PHYR | ≤ 0.2
120 | TMKA | ≤ 0.2
121 | LALG | ≤ 0.2
122 | KCCG | ≤ 0.2
123 | NYVV | ≤ 0.2
124 | SATK | ≤ 0.2
125 | LRTF | ≤ 0.2

Row | Variant | one-hybrid fitness for binding NBS DNA
126 | EDCE | ≤ 0.2
127 | THSL | ≤ 0.2
128 | MLGY | ≤ 0.2
129 | RPLH | ≤ 0.2
130 | ARNE | ≤ 0.2
131 | KHRY | ≤ 0.2
132 | LEGR | ≤ 0.2
133 | DATH | ≤ 0.2
134 | GLPA | ≤ 0.2
135 | KRRW | ≤ 0.2
136 | RADY | ≤ 0.2
137 | EDRM | ≤ 0.2
138 | WSLP | ≤ 0.2
139 | AGDR | ≤ 0.2
140 | ARWY | ≤ 0.2
141 | DPRF | ≤ 0.2
142 | AWHI | ≤ 0.2
143 | QTIW | ≤ 0.2
144 | RTEF | ≤ 0.2
145 | EHKG | ≤ 0.2
146 | SFYN | ≤ 0.2
147 | QECS | ≤ 0.2
148 | RRIV | 0.229
149 | YDGP | ≤ 0.2
150 | PKIR | ≤ 0.2

Row | Variant | one-hybrid fitness for binding NBS DNA
151 | YVPF | ≤ 0.2
152 | QNGS | ≤ 0.2
153 | QSKV | 0.398
154 | YDTE | ≤ 0.2
155 | QVWD | ≤ 0.2
156 | IRNH | ≤ 0.2
157 | VTAC | ≤ 0.2
158 | AGAD | ≤ 0.2
159 | QNSD | ≤ 0.2
160 | RTKI | 0.243
161 | HRDK | ≤ 0.2
162 | WLQA | ≤ 0.2
163 | HPRV | ≤ 0.2
164 | RVIW | ≤ 0.2
165 | ETAG | ≤ 0.2
166 | DAPW | ≤ 0.2
167 | VGSE | ≤ 0.2
168 | IAHS | ≤ 0.2
169 | DANL | ≤ 0.2
170 | HLRW | ≤ 0.2
171 | PKCR | ≤ 0.2
172 | RFSE | ≤ 0.2
173 | IWPS | ≤ 0.2
174 | LRHC | ≤ 0.2
175 | NIVT | ≤ 0.2

Row | Variant | one-hybrid fitness for binding NBS DNA
176 | NSSR | ≤ 0.2
177 | NHMC | ≤ 0.2
178 | VRSV | ≤ 0.2
179 | HHYT | ≤ 0.2
180 | NGCG | ≤ 0.2
181 | RMMH | ≤ 0.2
182 | RKRK | 0.222
183 | GGNR | ≤ 0.2
184 | VVSI | ≤ 0.2
185 | YGNS | ≤ 0.2
186 | RWQA | ≤ 0.2
187 | CTTD | ≤ 0.2
188 | TEHA | ≤ 0.2
189 | SPKL | ≤ 0.2
190 | VQRS | ≤ 0.2
191 | ARLA | ≤ 0.2
192 | QKLA | 0.206
193 | YRAR | ≤ 0.2
194 | RFHD | ≤ 0.2
195 | QKPK | ≤ 0.2
